Normalised cell viability data for nine compounds are collected here from the supplement of paper PMC8285479.

The structures appear in SMILES notation. Structures can show the parent of a compound that is named as a salt. ± gives the standard deviation of the averaged measurements. The full ranking holds about 1,900 compounds; the median of “normalised cell viability (NPI; 0 = phenylarsine oxide control, 1 = DMSO control)” is about 1, and the lowest 2% start at about 0.039. The list shows a part of the results.

For this assay, the system named is NCI-H1944. The assay is described as follows: normalised cell viability (NPI; 0 = phenylarsine oxide control, 1 = DMSO control) (fraction of DMSO control); NCI-H1944 is a non-small cell lung cancer line; higher = more viable cells (less compound toxicity). The settings on record: 6 days.
[1] abbreviates: glucocorticoid arm: hydrocortisone 2.75 uM co-treatment, compound 1 µM.
Setting [2] is: glucocorticoid arm: hydrocortisone 2.75 uM co-treatment, compound 5 µM.
The mark [3] stands for this setting: glucocorticoid arm: hydrocortisone 2.75 uM pre-treated 2 days and continued, compound 1 µM.
Where [4] appears, read: glucocorticoid arm: hydrocortisone 2.75 uM pre-treated 2 days and continued, compound 5 µM.
[5] abbreviates: glucocorticoid arm: vehicle, compound 1 µM.
Where [6] appears, read: glucocorticoid arm: vehicle, compound 5 µM.
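Also: CTB read-out in 384-well plates, mean of triplicate wells, normalised per plate against 1 µM phenylarsine oxide and 0.1% DMSO, compounds added 24 h after seeding.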

For `NCCS(=O)O` [Hypotaurine], the normalised cell viability under setting [1] turned out to be 1.01 ± 0.01; the normalised cell viability under setting [2] amounted to 1.01 ± 0.011; the normalised cell viability under setting [3] was 1.02 ± 0.015; the normalised cell viability under setting [4] was 1.01; the normalised cell viability under setting [5] amounted to 0.995 ± 0.0044; the normalised cell viability under setting [6] is 0.9943 ± 0.0055.
In the case of `N[C@@H](C(=O)N[C@@H]1C(=O)N2C(C(=O)O)=C(Cl)CS[C@H]12)c1ccccc1` [Cefaclor], the normalised cell viability stood at 1.017 ± 0.0058 under setting [1]; 1 ± 0.027 under setting [2]; 1.013 ± 0.0058 under setting [3]; 1.015 ± 0.0071 under setting [4]; 0.9933 ± 0.007 under setting [5]; 0.999 ± 0.012 under setting [6].
In the case of `CN1CCC[C@@H]1c1cccnc1.Cc1ccc(C(=O)O[C@H](C(=O)O)[C@@H](OC(=O)c2ccc(C)cc2)C(=O)O)cc1` [(+)-Nicotine (+)-di-p-toluoyl tartrate], the normalised cell viability came to 1.03 ± 0.015 under setting [1]; 1.02 ± 0.016 under setting [2]; 1.03 ± 0.01 under setting [3]; 1.03 ± 0.021 under setting [4]; 1.027 ± 0.0058 under setting [5]; 1.03 ± 0.015 under setting [6].
With `N=C(N)N/N=C/c1c(Cl)cccc1Cl` [Guanabenz Acetate], the normalised cell viability runs as follows: under setting [1], 1.001 ± 0.0081; under setting [2], 0.986 ± 0.021; under setting [3], 1.003 ± 0.0061; under setting [4], 0.964 ± 0.012; under setting [5], 1.01 ± 0.011; under setting [6], 0.986 ± 0.008.
For `N=C(N)N/N=C/c1c(Cl)cccc1Cl` [Guanabenz acetate], the normalised cell viability under setting [1] came out at 1.013 ± 0.0058; the normalised cell viability under setting [2] turned out to be 0.991 ± 0.021; the normalised cell viability under setting [3] was determined as 1.02; the normalised cell viability under setting [4] came out at 1.01 ± 0.01; the normalised cell viability under setting [5] worked out at 1.023 ± 0.0058; the normalised cell viability under setting [6] is 1.02 ± 0.01.
Turning to `N#C/C(=C\c1ccc(O)c(O)c1)C(=O)NCCCNC(=O)/C(C#N)=C/c1ccc(O)c(O)c1` [Tyrphostin AG 537], the normalised cell viability reads like this: under setting [1], 0.9823 ± 0.0093; under setting [2], 0.957 ± 0.021; under setting [3], 0.821 ± 0.3; under setting [4], 0.953 ± 0.025; under setting [5], 0.9857 ± 0.0067; under setting [6], 0.9917 ± 0.0055.
In the case of `CN(C)CCOC(=O)COc1ccc(Cl)cc1` [Centrophenoxine hydrochloride], the normalised cell viability under setting [1] amounted to 1.007 ± 0.0058; the normalised cell viability under setting [2] was found to be 1.017 ± 0.0058; the normalised cell viability under setting [3] turned out to be 1.006 ± 0.0075; the normalised cell viability under setting [4] turned out to be 0.993 ± 0.039; the normalised cell viability under setting [5] worked out at 1.001 ± 0.0085; the normalised cell viability under setting [6] came out at 0.9917 ± 0.0074.
`Brc1c(NC2=NCCN2)ccc2nccnc12`: the normalised cell viability runs as follows: under setting [1], 0.992 ± 0.011; under setting [2], 0.9953 ± 0.0072; under setting [3], 0.904 ± 0.17; under setting [4], 0.982 ± 0.011; under setting [5], 0.9963 ± 0.0038; under setting [6], 0.9957 ± 0.004.
Consider `COc1ccc(C[C@@H]2c3cc(OC)c(OC)cc3CC[N@+]2(C)CCC(=O)OCCCCCOC(=O)CC[N@@+]2(C)CCc3cc(OC)c(OC)cc3[C@H]2Cc2ccc(OC)c(OC)c2)cc1OC` [Cisatracurium Besylate], for which the normalised cell viability is 1.023 ± 0.0058 under setting [1]; 1 ± 0.014 under setting [2]; 1.013 ± 0.0058 under setting [3]; 1.02 ± 0.016 under setting [4]; 1.007 ± 0.0058 under setting [5]; 1.007 ± 0.0058 under setting [6].
